Measured values reported in PubChem BioAssay AID360 (National Center for Advancing Translational Sciences (NCATS), 2006).
The whole screen tested about 48,000 compounds, of which about 550 (1.1%) were called active. Inconclusive results (about 4%) are left out. No stated cut-off is given here; in the data, active means potency below about 15 µM; inconclusive means mostly about 16 µM to 33 µM; inactive means weaker than that. This is one part of the list.

target: Lysosomal acid glucosylceramidase (Homo sapiens) (UniProt P04062); assay: Glucocerebrosidase; details: purified enzyme, resorufin glucoside fluorescence (screen aimed at inhibitors), 20 min;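 further: the screen sought inhibitors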
Chain of UniProt P04062 (P04062 whole entry, looked up): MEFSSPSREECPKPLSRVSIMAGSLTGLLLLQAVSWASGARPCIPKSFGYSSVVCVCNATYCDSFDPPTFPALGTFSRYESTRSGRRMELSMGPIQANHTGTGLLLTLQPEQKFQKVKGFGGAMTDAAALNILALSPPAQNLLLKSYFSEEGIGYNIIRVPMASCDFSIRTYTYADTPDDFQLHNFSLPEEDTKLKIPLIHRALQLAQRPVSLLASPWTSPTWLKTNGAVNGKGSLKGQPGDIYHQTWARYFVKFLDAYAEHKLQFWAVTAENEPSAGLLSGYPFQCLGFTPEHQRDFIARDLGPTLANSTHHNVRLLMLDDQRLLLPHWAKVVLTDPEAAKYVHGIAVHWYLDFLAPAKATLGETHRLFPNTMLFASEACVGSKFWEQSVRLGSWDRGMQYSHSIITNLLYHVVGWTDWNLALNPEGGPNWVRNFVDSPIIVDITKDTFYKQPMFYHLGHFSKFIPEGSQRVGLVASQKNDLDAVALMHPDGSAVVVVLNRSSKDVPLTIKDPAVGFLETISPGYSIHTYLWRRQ
Procedure, shortened: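 Normal human glucocerebrosidase (0.2 nM final) was assayed with resorufin β-D-glucopyranoside (30 uM final) in 50mM citric acid/KH2PO4, 10mM sodium taurocholate, 0.01% tween-20, pH 5.9. Compounds were titrated; fluorescence (Ex 548, Em 600) read after 20 min at RT.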
Potency means the concentration at half of the fitted maximal effect.

Q: With `Cc1cc(OC(=O)c2ccccc2)n(CCC#N)n1` as the compound, how does the Potency read?
A: inactive: > 76.9 µM

Q: How did the Potency turn out when `Cc1ccc2[nH]c3c(c2c1)CN(C(=O)CN1CCN(c2cccc(C)c2C)CC1)CC3` was run?
A: inactive: > 76.9 µM

Q: `CCCCN1C(=O)CC(Nc2ccc(CC)cc2)C1=O` (stereo unspecified) was tested. Which Potency did it give?
A: inactive: > 76.9 µM

Q: With `CCN(CC)CCCNC(=O)C1c2ccccc2Oc2ccccc21` as the compound, how does the Potency read?
A: inactive: > 76.9 µM

Q: `CCc1ccccc1NC(=O)c1nnn(CC(=O)Nc2ccccc2C)c1N` was tested. Which Potency did it give?
A: inactive: > 76.9 µM

Q: `O=C(NCCCn1ccnc1)c1ccc(Cl)c(S(=O)(=O)N2CCOCC2)c1` was tested. Which Potency did it give?
A: inactive: > 76.9 µM

Q: Which Potency does the source give for `O=C(Nc1nc(-c2ccc(S(=O)(=O)N3CCCC3)cc2)cs1)c1ccco1` here?
A: inactive

Q: `c1ccc(N2CCN(c3ncnc4sc5c(c34)CCC5)CC2)cc1` was tested. Which Potency did it give?
A: inactive: > 76.9 µM

Q: For `Cc1nc(C)c(C(=O)C2=C(O)C(=O)N(CCCn3ccnc3)C2c2ccc(Cl)cc2)s1` (stereo unspecified), which Potency is on record?
A: inactive: > 76.9 µM

Q: How did the Potency turn out when `Clc1ccc(OCc2nc(-c3ccncc3)no2)c(Cl)c1` was run?
A: inactive: > 76.9 µM

Q: `OC(CN1CCCCC1)CN(c1ccccc1)c1ccccc1` (stereo unspecified) was tested. Which Potency did it give?
A: inactive: > 76.9 µM

Q: Which Potency does the source give for `CCOC(=O)c1cc2c(=O)n3ccccc3nc2n(CCOC)c1=NC(=O)c1ccncc1` here?
A: inactive: > 76.9 µM

Q: With `Cc1ccc(-c2cn3c(n2)CCCC3)cc1` as the compound, how does the Potency read?
A: inactive: > 76.9 µM

Q: Which Potency does the source give for `Nc1ccc(N2CCOCC2)c(Cl)c1` here?
A: inactive: > 76.9 µM

Q: For `CN(C)c1oc(-c2ccc(OCc3ccccc3)cc2)nc1C#N`, which Potency is on record?
A: inactive

Q: For `CCOC(=O)C1CCCN(S(=O)(=O)c2c(C)c(C)cc(C)c2C)C1` (stereo unspecified), which Potency is on record?
A: inactive: > 76.9 µM

Q: Which Potency does the source give for `CCC(C)[C@H](N)c1nnc(SCC(=O)Nc2cccc(Cl)c2)o1` (stereo partly specified) here?
A: inactive: > 76.9 µM

Q: Which Potency does the source give for `O=C1C2CC=CCC2C(=O)N1c1nc2n(n1)C(c1ccccc1)CC(c1ccccc1)N2` (stereo unspecified) here?
A: inactive: > 76.9 µM

Q: `CCOc1cccc(-c2nnc(SCC(=O)Nc3cc(C)ccc3OC)n2N)c1` was tested. Which Potency did it give?
A: inactive: > 76.9 µM

Q: How did the Potency turn out when `Cc1nc(NCCO)c2nnn(Cc3ccccc3F)c2n1` was run?
A: inactive: > 76.9 µM

Q: `Cc1cc(C(F)(F)F)nc(SCC(=O)NC2=NC(=O)C(C)S2)n1` (stereo unspecified) was tested. Which Potency did it give?
A: inactive: > 76.9 µM

Q: `Cc1cccc(OCC(=O)Nc2ccccc2N2CCCCC2)c1` was tested. Which Potency did it give?
A: inactive: > 76.9 µM

Q: For `COc1ccc(C2C3C(=O)N(Cc4ccccc4)C(=O)C3ON2c2ccccc2)c(OC)c1OC` (stereo unspecified), which Potency is on record?
A: inactive: > 76.9 µM

Q: `COc1ccc(C2C(C(=O)NCc3ccccc3)=C(C)Nc3ncnn32)cc1OC` (stereo unspecified) was tested. Which Potency did it give?
A: inactive: > 76.9 µM

Q: How did the Potency turn out when `CC(OC(=O)c1cccs1)C(=O)NCc1ccc2c(c1)OCO2` (stereo unspecified) was run?
A: inactive: > 76.9 µM

Q: How did the Potency turn out when `COc1ccc(NC(=O)c2ccccc2NC(=O)C2CCCO2)cc1` (stereo unspecified) was run?
A: inactive: > 76.9 µM

Q: `CCOC(=O)c1cc(-c2ccccc2)sc1NC(=O)CSc1nnnn1C` was tested. Which Potency did it give?
A: inactive: > 76.9 µM

Q: How did the Potency turn out when `CCN(CC)CCOC(=O)c1ccc(NC(=O)COc2cc(=O)n(CC)c3ccccc23)cc1` was run?
A: inactive

Q: With `CCOC(=O)C1CCCN(CCC(=O)Nc2ccc3c(c2)CCC3)C1` (stereo unspecified) as the compound, how does the Potency read?
A: inactive: > 76.9 µM

Q: `COc1ccccc1-c1cc(C(=O)NCc2ccc(F)cc2)no1` was tested. Which Potency did it give?
A: active: 9.91 µM

Q: `CCOC(=O)C(NCc1ccccc1OC)(NC(C)=O)C(F)(F)F` (stereo unspecified) was tested. Which Potency did it give?
A: inactive: > 76.9 µM

Q: `CCOC(=O)c1[nH]c(C)c(/C(O)=C2\C(=O)C(=O)N(CCN(C)C)C2c2cccc(OC)c2OC)c1C` (stereo unspecified) was tested. Which Potency did it give?
A: inactive: > 76.9 µM

Q: For `Cn1c(=O)c(=O)n(C)c2cc(S(=O)(=O)N3CCC(Cc4ccccc4)CC3)ccc21`, which Potency is on record?
A: inactive: > 76.9 µM

Q: How did the Potency turn out when `CCC(=O)OC1(C#CCOc2ccc(OC)cc2)CCN(C)CC1` was run?
A: inactive: > 76.9 µM

Q: With `CCOCCCNC(=O)C1CC(=O)N(C2CCCC2)C1` (stereo unspecified) as the compound, how does the Potency read?
A: inactive: > 76.9 µM

Q: Which Potency does the source give for `CCOc1ccc(S(=O)(=O)N2CCN(C(=O)c3cccn3C)CC2)cc1` here?
A: inactive: > 76.9 µM

Q: How did the Potency turn out when `Cc1ccc(-c2csc(N)n2)s1` was run?
A: inactive: > 76.9 µM

Q: With `CCOC(=O)Nc1ccc2c(c1)N(C(=O)OC)c1ccccc1CC2` as the compound, how does the Potency read?
A: inactive: > 76.9 µM

Q: `CCOC(=O)COc1c(OC)cc(Cl)cc1C1NC(=O)NC(C)=C1C(C)=O` (stereo unspecified) was tested. Which Potency did it give?
A: inactive: > 76.9 µM

Q: How did the Potency turn out when `Cc1nc(N)c(C#N)c(-c2ccccc2)c1C` was run?
A: inactive: > 76.9 µM

Q: For `CCCCC(=O)Nc1ccc(NC(=O)c2ccccc2OC)cn1`, which Potency is on record?
A: inactive: > 76.9 µM

Q: With `Cc1ccc(S(=O)(=O)n2nc(-c3ccco3)nc2SCc2ccccc2)cc1` as the compound, how does the Potency read?
A: inactive: > 76.9 µM

Q: With `CCOc1nc(-c2ccccc2)ccc1-c1noc(-c2ccncc2)n1` as the compound, how does the Potency read?
A: inactive: > 76.9 µM

Q: Which Potency does the source give for `CCN(CCCNC(=O)C1CCC(=O)N1Cc1ccc(F)cc1)c1cccc(C)c1` (stereo unspecified) here?
A: active: 14.9 µM

Q: For `CCOC(=O)NC(NC(=O)OCC)C(=O)c1ccc(F)cc1`, which Potency is on record?
A: inactive: > 76.9 µM

Q: Which Potency does the source give for `O=C1C2C3C=CC(C3)C2C(=O)N1CC1CCCO1` (stereo unspecified) here?
A: inactive: > 76.9 µM

Q: With `CCCc1nc2sc3c(SCC(=O)NCc4ccco4)ncnc3c2c2c1CCC2` as the compound, how does the Potency read?
A: inactive

Q: For `COc1ccc(C(=O)N(c2ccccc2)C2C=CS(=O)(=O)C2)cc1` (stereo unspecified), which Potency is on record?
A: inactive: > 76.9 µM

Q: For `COc1ccc(OC)c(NC(=O)CCCN2C(=O)C3C4C=CC(C4)C3C2=O)c1` (stereo unspecified), which Potency is on record?
A: inactive: > 76.9 µM

Q: With `CN(CCC#N)C(=O)COC(=O)c1ccc(Cl)c(S(N)(=O)=O)c1` as the compound, how does the Potency read?
A: inactive: > 76.9 µM

Q: Which Potency does the source give for `COc1cc(C(O)P(=O)(OC2CCCCC2)c2ccc(N(C)C)cc2)cc(OC)c1OC` (stereo unspecified) here?
A: inactive: > 76.9 µM

Q: For `CCn1nc(C)c(/C=C2\CCCC3=C2OC(N)=C(C#N)C3c2c(C)nn(CC)c2C)c1C` (stereo unspecified), which Potency is on record?
A: inactive: > 76.9 µM

Q: For `N#CC1=C(N)Oc2cc3c(cc2C1c1ccc(Cl)cc1)OCO3` (stereo unspecified), which Potency is on record?
A: inactive: > 76.9 µM

Q: How did the Potency turn out when `CC1CCCCC1NC(=O)c1ccc(N2CCCC2=O)cc1` (stereo unspecified) was run?
A: inactive: > 76.9 µM

Q: With `Cn1c(C(=O)NC2CCCCC2)cc2sccc21` as the compound, how does the Potency read?
A: inactive: > 76.9 µM

Q: How did the Potency turn out when `CN1C(=O)C(CC(=O)N2CCN(C(c3ccccc3)c3ccccc3)CC2)N(C)C1=O` (stereo unspecified) was run?
A: inactive: > 76.9 µM

Q: `Cc1cc(C)n(-c2nc3c(c(=O)[nH]c(=O)n3C)n2CCc2ccccc2)n1` was tested. Which Potency did it give?
A: inactive: > 76.9 µM

Q: For `CCCC(=O)Nc1nn(C)c2nc3cc(C)ccc3cc12`, which Potency is on record?
A: inactive: > 76.9 µM

Q: For `COc1cccc(C2NC(=O)NC(C)=C2C(=O)Nc2cccc(C)c2C)c1` (stereo unspecified), which Potency is on record?
A: inactive: > 76.9 µM

Q: `CN(C)c1ccc(C(=O)c2ccc(N(C)C)c(N)c2)cc1N` was tested. Which Potency did it give?
A: inactive: > 76.9 µM

Q: With `CCOC(=O)Cc1cc(=O)n2[nH]c(C)c(-c3ccc(OC)cc3)c2n1` as the compound, how does the Potency read?
A: inactive: > 76.9 µM

Q: With `Cc1cccc(OCc2nc(-c3nonc3N)no2)c1C` as the compound, how does the Potency read?
A: inactive: > 76.9 µM

Q: For `O=C(Cc1ccccc1)Nc1ccc(N2CCOCC2)cc1N1CCOCC1`, which Potency is on record?
A: inactive: > 76.9 µM

Q: For `CC(C)(C)NC(=O)Cn1nnc(-c2cccs2)n1`, which Potency is on record?
A: inactive: > 76.9 µM

Q: How did the Potency turn out when `Cc1cc(C)n(C(=O)c2cccc(S(=O)(=O)N3CCCC3)c2)n1` was run?
A: inactive: > 76.9 µM

Q: `c1ccc2nc(N3CCCC3)c(N3CCCC3)nc2c1` was tested. Which Potency did it give?
A: inactive: > 76.9 µM

Q: Which Potency does the source give for `Oc1ccc(-c2nnc(-c3ccc(O)cc3)nn2)cc1` here?
A: inactive: > 76.9 µM

Q: `Cc1cc(NC(=O)CSc2nc(-c3ccccc3)cs2)no1` was tested. Which Potency did it give?
A: inactive: > 76.9 µM

Q: Which Potency does the source give for `CSc1nc(-c2ccco2)nn1C(=O)Cc1ccccc1` here?
A: inactive: > 76.9 µM

Q: How did the Potency turn out when `Cc1c(-c2nn(C)c(=O)c3ccccc23)oc2ccc(F)cc2c1=O` was run?
A: inactive: > 76.9 µM

Q: How did the Potency turn out when `COc1ccc(-c2c3c(=O)n(C)c(=O)n(C)c3c3nnc4ccccc4n23)cc1` was run?
A: inactive: > 76.9 µM

Q: How did the Potency turn out when `CC(C)Oc1ccccc1-c1nc(SCC(=O)O)n[nH]1` was run?
A: inactive: > 76.9 µM

Q: Which Potency does the source give for `O=C(NC1CCCCC1)NC1(C(=O)N2CCN3CCCC3C2)CCCCC1` (stereo unspecified) here?
A: inactive: > 76.9 µM

Q: `CCn1c2ccccc2c2nnc(SCC(=O)NCc3cccs3)nc21` was tested. Which Potency did it give?
A: inactive: > 76.9 µM

Q: With `COc1ccc(S(=O)(=O)NC2CC(C)(C)NC(C)(C)C2)c(C)c1C` as the compound, how does the Potency read?
A: inactive: > 76.9 µM

Q: `CCOC(=O)N1CCN(C(=O)c2ccc3nc(N4CCC(C)CC4)sc3c2)CC1` was tested. Which Potency did it give?
A: inactive: > 76.9 µM

Q: For `COc1ccc(C(=O)CSc2nnc(-c3ccco3)n2C)cc1`, which Potency is on record?
A: inactive: > 76.9 µM

Q: `COc1ccc(-c2cc3nc(C)cc(C)n3n2)c(OC)c1` was tested. Which Potency did it give?
A: inactive: > 76.9 µM

Q: For `O=C(CC1CCCCC1)OCn1nnc2ccccc2c1=O`, which Potency is on record?
A: inactive: > 76.9 µM

Q: Which Potency does the source give for `Cc1nc(SCC(=O)N2CCOCC2)c2ccsc2n1` here?
A: inactive: > 76.9 µM

Q: With `Cc1ccc(S(=O)(=O)n2nc(OC(=O)c3ccco3)cc2N)cc1` as the compound, how does the Potency read?
A: inactive: > 76.9 µM

Q: `COc1ccc(C(=O)N2CCCC(c3nc(-c4cccs4)no3)C2)cc1OC` (stereo unspecified) was tested. Which Potency did it give?
A: inactive: > 76.9 µM

Q: With `O=C(Cn1cccc1)N1CCN(C(c2ccccc2)c2ccccc2)CC1` as the compound, how does the Potency read?
A: inactive: > 76.9 µM

Q: `Cc1cc(=O)[nH]c(SCc2nc3ccccc3n2Cc2ccccc2)n1` was tested. Which Potency did it give?
A: inactive: > 76.9 µM

Q: For `Clc1ccc2c(c1)c1ccccc1n2CN1CCOCC1`, which Potency is on record?
A: inactive: > 76.9 µM

Q: Which Potency does the source give for `CC(C)OC(=O)CSc1nnc(-c2ccc(C(C)(C)C)cc2)n1N` here?
A: inactive: > 76.9 µM

Q: How did the Potency turn out when `FC(F)(F)c1nnc2sc(-c3ccco3)nn12` was run?
A: inactive: > 76.9 µM

Q: With `CCNc1nc(C)nc2c1oc1ccccc12` as the compound, how does the Potency read?
A: inactive: > 76.9 µM

Q: `CS/C(=N\S(=O)(=O)c1cccs1)NC(=O)CSc1nc2ccccc2s1` was tested. Which Potency did it give?
A: inactive: > 76.9 µM

Q: How did the Potency turn out when `CCOc1ccccc1OCCCC(=O)N1CCN(S(=O)(=O)c2cccc(F)c2)CC1` was run?
A: inactive: > 76.9 µM

Q: `CCOc1ccc(NC(=O)c2nnn(CC(=O)Nc3ccccc3OCC)c2N)cc1` was tested. Which Potency did it give?
A: inactive: > 76.9 µM
